# Laboratory results: the supplement of paper PMC3334620
# The full ranking holds about 33,000 sequences; the median of “E-score (-0.5 to 0.5)” is about -0.054, and the highest 2% start at about 0.35. Some of the results follow.
# Target: T1, Stb5 (UniProt P38699)
# T1 sequence: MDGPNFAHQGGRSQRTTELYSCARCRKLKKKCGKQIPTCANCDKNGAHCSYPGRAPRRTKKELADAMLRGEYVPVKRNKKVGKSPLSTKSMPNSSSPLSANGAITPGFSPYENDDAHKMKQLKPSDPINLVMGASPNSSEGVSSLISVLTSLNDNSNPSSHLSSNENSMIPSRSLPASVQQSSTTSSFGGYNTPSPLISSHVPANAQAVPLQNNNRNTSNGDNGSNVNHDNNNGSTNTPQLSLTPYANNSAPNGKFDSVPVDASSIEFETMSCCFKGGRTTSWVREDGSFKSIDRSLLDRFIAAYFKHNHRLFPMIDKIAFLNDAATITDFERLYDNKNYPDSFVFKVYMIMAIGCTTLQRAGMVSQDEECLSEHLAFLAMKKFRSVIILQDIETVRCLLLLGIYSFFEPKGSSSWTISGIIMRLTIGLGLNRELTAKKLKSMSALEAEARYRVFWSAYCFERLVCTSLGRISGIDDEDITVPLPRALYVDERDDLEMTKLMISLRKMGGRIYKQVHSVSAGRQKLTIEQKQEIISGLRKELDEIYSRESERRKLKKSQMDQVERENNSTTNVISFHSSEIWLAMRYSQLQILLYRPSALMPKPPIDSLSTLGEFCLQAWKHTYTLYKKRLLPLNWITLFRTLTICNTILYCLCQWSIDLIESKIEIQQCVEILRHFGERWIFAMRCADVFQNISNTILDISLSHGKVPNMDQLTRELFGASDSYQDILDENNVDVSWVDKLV
# Assay: PBM E-score (8-mer binding enrichment) (E-score (-0.5 to 0.5)); higher = stronger / more preferred TF binding; most listed sequences are background and not binding sites
# Conditions: protein concentration: 200 nM; construct: GST-full length
# Summary of the method: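 Bound GST-tagged yeast transcription factors, applied at about 100-200 nM to double-stranded universal all-10-mer Agilent arrays, were detected with fluorescent anti-GST. Scans were normalised with masliner. A modified Wilcoxon-Mann-Whitney statistic, the E-score, was assigned to each ungapped eight-base word pooled with its reverse complement by the Universal PBM Analysis Suite.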
row,Sequence,PBM E-score
1,AGTGCAAT,-0.238
2,ATCTAGAG,-0.145
3,AGGCCCCG,0.265
4,ATCTATGA,-0.117
5,CCTAGACA,0.0869
6,CTCATAAA,0.0678
7,ATACCTGA,-0.0268
8,CGATTTGC,0.0364
9,AGAGCTCA,-0.294
10,ACCTCATA,-0.228
11,ATGTGTAG,0.00787
12,CTCGTGTA,-0.144
13,GGAGGTAA,0.231
14,GCGATCGC,0.0643
15,GTAAGCAA,-0.146
16,ACATTAGT,-0.0238
17,CCGCAGTA,0.146
18,TACGAGGA,-0.146
19,AATACTTA,-0.102
20,TAATTCGA,-0.225
21,ATACTTAA,-0.0622
22,AATGCAAC,-0.133
23,CTTTTGGC,-0.112
24,CTGACATC,-0.153
25,ATTTCAGC,-0.228

row,Sequence,PBM E-score
1,CAGTTTAA,0.106
2,ACCTGGGA,-0.192
3,GCCCTTAC,-0.0337
4,ACCACCAG,-0.148
5,CTATAAGA,-0.203
6,GCGGGCAC,0.212
7,CAGGGGCC,-0.0955
8,ACTCGAGA,-0.163
9,TCCGTCGA,0.282
10,GTCATCGA,-0.152
11,CTCCTCAG,-0.216
12,TCGAAACA,-0.233
13,CTTCCAGC,-0.208
14,ATGCTTTA,-0.105
15,TCCTGCGA,0.00297
16,GGCGCGCA,0.104
17,CGGAGGTA,0.434
18,AGCTTTTC,-0.0716
19,AGAGGTCG,0.0346
20,AGGTTACG,-0.0374
21,CTTGTAAC,0.0769
22,CTCGAGTA,-0.198
23,CCGTTAAG,0.176
24,GATCAGCC,-0.134
25,TGCAATAA,-0.0214

row,Sequence,PBM E-score
1,ATTGACGG,0.234
2,CGGTAGAA,0.224
3,CGGATTGA,0.192
4,AACGTGAC,-0.134
5,AGTTTGGG,-0.0288
6,AGCGGATC,0.263
7,AATCAGTG,-0.18
8,AGCAAAAC,-0.0915
9,AATGATGC,-0.0756
10,AAGTGGTC,-0.0973
11,CTGCCATC,-0.297
12,GAGGTACC,-0.00145
13,ACCCGCTA,0.0951
14,CGACACCC,0.0971
15,AGAAGTAA,-0.0838
16,ATTCTGTA,-0.186
17,AAATTATG,-0.0395
18,CATGTCCC,-0.0516
19,CGCATCTA,0.244
20,CTGCCCAA,-0.332
21,CACAGGTG,-0.135
22,GTTGACAA,0.0593
23,AACTACCC,-0.116
24,ATACGTGC,0.0328
25,AAGGTAGA,-0.0184

row,Sequence,PBM E-score
1,AGATTTAA,0.0536
2,CGTCCCAC,0.111
3,AATCGTAG,-0.307
4,CTAAGGCA,-0.101
5,ACACGCGC,0.0578
6,CTCGAATA,-0.0857
7,GAGTTGCA,0.0644
8,CCGCACAA,0.154
9,AAAGAATT,-0.151
10,ATGCACCG,0.277
11,CAGGGTAG,-0.165
12,AGTCTACG,-0.206
13,GGTCCACC,0.0438
14,AGCAACAC,-0.104
15,GTCCAGAC,-0.0488
16,AGCTATCA,-0.0424
17,GAAAGAAA,-0.022
18,CCTGCAAA,-0.153
19,CAGTGACC,-0.143
20,GCTACTGA,-0.0778
21,GTAGGGTA,-0.0932
22,ACTCCCGA,0.287
23,AACGGTAA,0.235
24,GTAAGCAC,-0.0465
25,TACAAGAA,-0.045

row,Sequence,PBM E-score
1,CCGGGCTA,0.19
2,CTAGTCAC,0.0235
3,TGGATTAA,-0.18
4,CGCTGACA,0.129
5,GGCTTGCA,0.0133
6,AGCCGAAA,-0.0369
7,CTCCCGTA,-0.107
8,AATTTACC,0.22
9,GTGCTAAC,0.208
10,CTCCTATA,-0.22
11,CCACAATC,-0.0333
12,ATCATATA,-0.125
13,AGTCCGGC,0.38
14,GAACTGAA,-0.0941
15,TAAGGACA,-0.0617
16,GCACTTAC,0.193
17,CGTGCCTC,-0.149
18,ACGTCTGA,-0.0368
19,CAGGAAGA,-0.108
20,ACATAGAG,-0.11
21,ACGGACCA,0.237
22,ACAATGCT,-0.184
23,CTGACACC,0.29
24,GATTCATA,-0.00887
25,CAAAGAGG,-0.0165

row,Sequence,PBM E-score
1,CAATAGCC,0.0314
2,CTAGGAGC,-0.112
3,AATCGACT,-0.21
4,CCTAGCAA,-0.129
5,TGGTTCAA,-0.143
6,CCTCGCTC,-0.0606
7,ACGTGACT,-0.0808
8,GACACGAC,-0.228
9,CGACCGCA,0.123
10,AAGATGAT,-0.11
11,AATGACTA,-0.17
12,AGCTGTAG,-0.188
13,ATGTGGGG,-0.138
14,GGTAGAAC,0.121
15,ACATTGGT,-0.229
16,GCCCCCAA,-0.234
17,GAGGTGGC,-0.143
18,ACTATAAG,0.173
19,TTATTAAA,0.129
20,CTCATGCA,-0.13
21,GGCATGCC,0.226
22,GATTGATA,-0.13
23,AAAGACCT,-0.0221
24,AGATTCGA,-0.131
25,AGTAGCCA,-0.303

row,Sequence,PBM E-score
1,ATTTTCTC,0.0576
2,CATGCTGC,-0.138
3,CTGATAGA,-0.0917
4,AAGGAAAG,0.0346
5,CCCTTATA,-0.00682
6,CTCAAGTC,-0.221
7,AACGGGGC,0.294
8,ATAGGACC,0.31
9,AATATGGT,0.156
10,AAACGCCA,-0.046
11,CTTGTGAA,-0.198
12,AACGTCAA,-0.237
13,CGTAGTCC,0.0487
14,AAGGTGCA,-0.216
15,AGCCAGGA,-0.212
16,ACATTCAT,-0.103
17,CGGTGGTC,0.26
18,ACCAGCAG,-0.388
19,CACTCTAC,-0.159
20,TCAAACCA,-0.0934
21,ATCGGGCA,0.17
22,TGCAACAA,-0.083
23,GGCTCACC,-0.102
24,GCGGAGCC,0.237
25,GTATTAGA,-0.0314

row,Sequence,PBM E-score
1,ATAAGATG,-0.303
2,CATGCTAG,-0.111
3,ATACCACC,0.334
4,CATATGTC,0.06
5,GTCGACTA,-0.16
6,CTTGCTCC,-0.0642
7,GGTTCTAC,0.2
8,CTCTATCC,-0.0198
9,GCTCAAAA,0.0351
10,ACTTGGGA,-0.122
11,AATTCAAG,-0.204
12,CGTAAGGA,-0.216
13,GTGACGTA,-0.0779
14,AGAGTTCG,-0.0267
15,AGTTCCAG,-0.0255
16,CCTCTCCC,-0.291
17,ATCGATGA,-0.128
18,AGTGCCGC,0.381
19,ACCTACGA,-0.127
20,CCAGTCGC,0.0868
21,CACTGATA,-0.348
22,CCTCAGAA,-0.233
23,CAGGCCTA,-0.00222
24,GATGGGAA,-0.259
25,CCCCAACA,0.00066

row,Sequence,PBM E-score
1,GCACAAAC,-0.032
2,CCTGAAGG,-0.14
3,CGCCCCGA,0.328
4,AGGTTAAG,-0.146
5,AGATGAAA,-0.155
6,CTAGCGAA,-0.301
7,GGCGAGCC,-0.0995
8,CGGTAACG,0.188
9,CGGCCTAA,0.313
10,CAGACGCA,-0.139
11,CATCGATC,-0.125
12,GATGGGCA,-0.207
13,TAATGCTA,-0.0856
14,ACAGTCCA,-0.357
15,CAAGTCAA,-0.204
16,ACAAGAGG,-0.151
17,GGTTCCTA,0.0107
18,CCGCGGCA,0.367
19,AGCTTGAG,0.0597
